Source: paper PMC6133972
These are yes or no findings as the source states them, for the method shown. In cells and extracts the contact can be indirect. Some entries that bind do so weakly or less than the wild type. For some of these results: Sequences can lack the tags named with a protein.

Chains of the proteins cited; added tags and fusions are not shown.
UniProt Q14790: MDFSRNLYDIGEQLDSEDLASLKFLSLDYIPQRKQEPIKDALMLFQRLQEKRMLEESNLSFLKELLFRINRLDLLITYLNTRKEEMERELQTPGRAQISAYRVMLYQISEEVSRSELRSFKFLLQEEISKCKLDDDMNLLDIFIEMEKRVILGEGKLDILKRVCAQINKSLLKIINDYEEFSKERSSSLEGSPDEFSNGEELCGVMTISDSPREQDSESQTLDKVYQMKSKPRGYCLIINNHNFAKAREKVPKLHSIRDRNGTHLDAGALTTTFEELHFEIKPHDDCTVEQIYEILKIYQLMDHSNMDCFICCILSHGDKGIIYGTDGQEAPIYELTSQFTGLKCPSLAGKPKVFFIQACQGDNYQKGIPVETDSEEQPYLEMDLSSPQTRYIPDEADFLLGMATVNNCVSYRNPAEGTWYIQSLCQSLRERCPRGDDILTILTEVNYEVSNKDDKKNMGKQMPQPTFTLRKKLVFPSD

T1: CERS6 with C-terminal HTBH-DDK tag, overexpressed in CCRF-CEM cells (human) (UniProt Q6ZMG9)
T1 sequence: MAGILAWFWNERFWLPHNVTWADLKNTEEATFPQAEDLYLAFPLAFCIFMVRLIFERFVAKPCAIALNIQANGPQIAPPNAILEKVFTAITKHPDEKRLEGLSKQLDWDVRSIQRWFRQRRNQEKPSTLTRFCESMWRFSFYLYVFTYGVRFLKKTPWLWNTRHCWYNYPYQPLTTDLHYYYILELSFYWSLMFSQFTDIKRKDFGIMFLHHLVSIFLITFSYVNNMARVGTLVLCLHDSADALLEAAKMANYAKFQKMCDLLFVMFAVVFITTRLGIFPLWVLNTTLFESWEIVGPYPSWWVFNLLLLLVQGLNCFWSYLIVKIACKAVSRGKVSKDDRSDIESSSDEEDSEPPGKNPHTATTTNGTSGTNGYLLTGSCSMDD

T2: human wild-type CERS6 tagged with mycDDK at COOH terminus (human) (UniProt Q6ZMG9)
T2 sequence: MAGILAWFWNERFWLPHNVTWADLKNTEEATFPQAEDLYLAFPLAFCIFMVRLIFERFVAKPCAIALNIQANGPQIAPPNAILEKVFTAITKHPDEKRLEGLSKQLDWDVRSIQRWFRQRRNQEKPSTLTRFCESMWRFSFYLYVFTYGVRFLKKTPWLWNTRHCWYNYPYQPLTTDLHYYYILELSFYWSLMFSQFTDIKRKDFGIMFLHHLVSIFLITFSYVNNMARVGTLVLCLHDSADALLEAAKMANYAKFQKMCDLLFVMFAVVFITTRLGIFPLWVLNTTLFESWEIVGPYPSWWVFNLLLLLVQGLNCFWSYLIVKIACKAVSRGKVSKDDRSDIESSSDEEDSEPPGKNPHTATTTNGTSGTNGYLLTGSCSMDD

T3: CD95/Fas death receptor, endogenous in CCRF-CEM cells (human (endogenous in CCRF-CEM)), P25445
T3 chain: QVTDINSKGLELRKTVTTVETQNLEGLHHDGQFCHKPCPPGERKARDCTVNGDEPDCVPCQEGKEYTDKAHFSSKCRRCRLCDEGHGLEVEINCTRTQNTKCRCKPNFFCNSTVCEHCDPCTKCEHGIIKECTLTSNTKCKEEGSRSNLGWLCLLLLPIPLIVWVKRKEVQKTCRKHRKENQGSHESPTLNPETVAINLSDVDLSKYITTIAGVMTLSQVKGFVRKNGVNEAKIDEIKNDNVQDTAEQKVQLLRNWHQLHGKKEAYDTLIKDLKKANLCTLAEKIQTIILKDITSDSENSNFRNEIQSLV


Experiments:
[1] = biological target: T1, CERS6 with C-terminal HTBH-DDK tag, overexpressed in CCRF-CEM cells (human); test: co-IP; two-step purification of CERS6-HTBH-DDK from 2000 µg lysate of CERS6 overexpressing CCRF-CEM cells: Ni-NTA resin overnight at 4 °C, elution with 350 mM imidazole, streptavidin affinity gel 2 h, AcTEV digestion 3 h; modified RIPA with Triton X-114; immunoblot of the final sample
[2] = biological target: T2, human wild-type CERS6 tagged with mycDDK at COOH terminus (human); test: co-IP; HEK293FT cells transfected with CERS6-mycDDK and Fas-HA or Fas-HA mutants; 1000 µg lysate on anti-FLAG-M2 affinity gel overnight at 4 °C, elution with 3× FLAG peptide; immunoblot
[3] = biological target: T2, human wild-type CERS6 tagged with mycDDK at COOH terminus (human); test: co-IP; co-immunoprecipitation of CERS6 and Fas in cytosolic (includes ER and other organelles) and plasma membrane fractions of transfected 293FT cells
[4] = biological target: CD95/Fas death receptor, endogenous in CCRF-CEM cells (human (endogenous in CCRF-CEM)) (UniProt P25445); test: co-IP; 1000 µg lysate of CCRF-CEM cells (non-targeted shRNA, CERS6 knockdown, CERS6 overexpressing) treated with ABT-737; 2 µg anti-Fas antibody overnight at 4 °C, Protein G Plus Agarose; normal IgG as control; immunoblot
[5] = biological target: T3, CD95/Fas death receptor, endogenous in …; test: as above; settings: remark: other sources report otherwise

| Molecule | binding [1] | binding [2] | also measured |
| --- | --- | --- | --- |
| FADD (Fas-associated protein with death domain), endogenous in CCRF-CEM cells (from UniProt Q13158 1-208) | no binding | – | – |
| FAS-HA ∆174–314 (from UniProt P25445 26-335) (receptor) | – | no binding | – |
| FAS-HA ∆174–236 and 315–335 (from UniProt P25445 26-335) (receptor) | – | binds | – |
| FAS-HA C199V (from UniProt P25445 26-335) (receptor) | – | binds | – |
| FAS full-length tagged with HA (from UniProt P25445 26-335) (receptor) | – | binds | binding [3]: binds |
| CD95/Fas death receptor, endogenous in CCRF-CEM cells (from UniProt P25445 26-335) | binds | – | – |
| caspase-8, endogenous in CCRF-CEM cells (from UniProt Q14790 1-479) (enzyme) | no binding | – | – |
| CERS6, endogenous in CCRF-CEM cells (enzyme, UniProt Q6ZMG9 1-384) MAGILAWFWNERFWLPHNVTWADLKNTEEATFPQAEDLYLAFPLAFCIFMVRLIFERFVAKPCAIALNIQANGPQIAPPNAILEKVFTAITKHPDEKRLEGLSKQLDWDVRSIQRWFRQRRNQEKPSTLTRFCESMWRFSFYLYVFTYGVRFLKKTPWLWNTRHCWYNYPYQPLTTDLHYYYILELSFYWSLMFSQFTDIKRKDFGIMFLHHLVSIFLITFSYVNNMARVGTLVLCLHDSADALLEAAKMANYAKFQKMCDLLFVMFAVVFITTRLGIFPLWVLNTTLFESWEIVGPYPSWWVFNLLLLLVQGLNCFWSYLIVKIACKAVSRGKVSKDDRSDIESSSDEEDSEPPGKNPHTATTTNGTSGTNGYLLTGSCSMDD | – | – | binding [4]: binds |
| FADD (Fas-associated protein with death domain), endogenous in CCRF-CEM cells, Q13158 1-208 (protein) MDPFLVLLHSVSSSLSSSELTELKFLCLGRVGKRKLERVQSGLDLFSMLLEQNDLEPGHTELLRELLASLRRHDLLRRVDDFEAGAAAGAAPGEEDLCAAFNVICDNVGKDWRRLARQLKVSDTKIDSIEDRYPRNLTERVRESLRIWKNTEKENATVAHLVGALRSCQMNLVADLVQEVQQARDLQNRSGAMSPMSWNSDASTSEAS | – | – | binding [5]: binds |
